The full ranking holds about 16,000 sequences; the median of “Z-score” is about -0.37, and the highest 2% start at about 3.2. The list shows a part of the results.
test system: RBM10 RRM1-ZnF (GST-tagged construct); experiment: RNAcompete 7-mer binding Z-score; higher = stronger binding preference
Experimental: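 RNAcompete: 20 pmol GST-tagged RBM10 RNA-binding constructs were incubated with a designed RNA pool of about 241,000 sequences up to 41 nt (1.5 nmol) on glutathione beads for 30 min at 4 °C and washed. Bound RNAs were identified by microarray hybridisation. Each RNA 7-mer is scored by a one-sided Z-score of its enrichment, computed over probes that contain the 7-mer within longer pool sequences.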

Sequence | RNAcompete 7-mer binding Z-score
ACGGUCC | -0.555
AAUACGC | -0.409
ACGGACU | -0.0479
UGUUGUG | 0.391
GGGCGAG | 3.37
UCUGCUC | -0.844
UGGGUAU | 2.37
AUGGCCA | -0.249
GUGCAAC | -0.106
CAUUCUG | -0.802
CAGCAUA | -0.474
GGUUUAG | 1.29
CAUAGCA | -0.415
CUUGAGG | 0.283
CGUACUA | -0.448
GAUUUUG | -0.194
CGCCCCU | -0.409
UUUUUUU | -0.834
UGAGUCG | 0.000789
CGAACCU | -0.688
CCCUGUA | -0.649
GAUUCGG | 0.612
CAAUCCA | -0.743
ACUCCAC | -0.662
ACGACCC | -0.594

Sequence | RNAcompete 7-mer binding Z-score
AUCUUCU | -0.863
ACAAUAU | -0.483
GAAUAGC | 0.056
CUUUGUG | -0.662
CGGUCAG | 0.254
CACUGUG | -0.282
GGAGAUG | 2.65
UCCCACG | -0.561
AUCCUCC | -0.694
CCAUUUC | -1.06
CCAACUG | -0.629
CACGAGA | -0.23
ACUUGUG | -0.275
AUCAAUA | -0.49
GUUACAC | -0.223
UUAAUAA | -0.545
UAAAUAA | -0.275
ACAGUUU | -0.623
GCUGCCU | -0.578
AGUGUGA | 0.842
AAGGCAA | 0.894
UCAACCG | -0.828
CCUGAUG | -0.509
CGCAUGU | -0.519
UAUCAGC | -0.694

Sequence | RNAcompete 7-mer binding Z-score
CCGAAGC | -0.61
CCAGUAU | -0.555
UGUGAAG | 0.833
CAUUCGC | -0.815
GAGACCU | -0.633
ACCCUCC | -0.74
UCCAGAU | -0.6
AUUAAUG | -0.0382
GCGUAAU | 0.115
GAUGGGU | 3.53
UAGGUAC | 0.524
AUCGUAU | -0.435
AAUCUUA | -0.824
UGAUGGG | 3.14
UAGACUU | -0.613
CAUGUGC | -0.266
GUAAUAU | -0.0122
AAGGAGC | 2.53
AUCUGUU | -0.785
GGGCAUG | 1.94
GGCCUCC | -0.487
UCAUUCC | -0.902
GCUCCCG | -0.168
UUACAUA | -0.496
CCCGGCU | -0.503

Sequence | RNAcompete 7-mer binding Z-score
UGUGCAU | -0.23
GCAUAGC | -0.324
UGCUUAU | -0.649
UGGUCGG | 1.84
UCCAUUC | -0.798
UCAUAGG | -0.022
GCGUAUA | -0.103
UUCUCGA | -0.769
GCGCCGA | -0.396
UCACGCC | -0.519
GAUCCCA | -0.587
ACUUUCU | -0.935
CGACAGG | 1
UUCAAGU | -0.565
CGGGGAU | 2.5
GGUGUUU | 1.34
CUGCGAA | -0.48
AAGAAUC | -0.366
UCAAUAA | -0.617
GAAUAAG | 0.55
UCAAUGU | -0.48
GGCUAAC | 0.0365
CGUAACG | -0.23
AAAUCUG | -0.558
AUGCAUC | -0.555

Sequence | RNAcompete 7-mer binding Z-score
GGGGGCU | 2.22
UGAAAGG | 3.05
GUUUAGU | -0.0674
AGCCAGU | -0.698
GUUUAAC | -0.386
GGAUAGC | 2.01
GCAGCUC | -0.584
CUGAAUC | -0.5
UGCAGUC | -0.379
UAAGUGG | 1.57
CGAACAG | -0.158
CUGAUAG | -0.246
AUAAUAC | -0.47
UCCCUUG | -0.73
GAUUAUU | -0.301
UUAGAAU | -0.152
ACAAAAG | -0.149
AAGGGUA | 4.59
CGGGGAA | 2.71
CUGGAUU | -0.0544
UCUGUAU | -0.668
ACUUGGG | 1.34
CCCGGUC | -0.37
AAACAGA | 0.017
GGUCUCA | -0.21

Sequence | RNAcompete 7-mer binding Z-score
GUUGUCA | -0.389
UAUGAUG | 0.332
UUCGGCG | -0.035
CGCUAUU | -0.727
CAAGUCU | -0.633
GUCCAGG | 0.163
UUCCAUU | -0.74
GUAAUGG | 2.73
GAUUCCC | -0.61
ACGUAGG | 1.46
GAUAGCC | -0.279
UAUCCCA | -0.665
CCAAGCC | -0.698
UAAUCGC | -0.604
AGCUACU | -0.61
AGGAUCG | 0.462
GCCAGUC | -0.412
AUUAGCU | -0.503
ACUGCAG | -0.0285
CCUAGCA | -0.727
AAGUUGG | 1.52
UAAUGCG | -0.266
GUCCCUU | -0.785
GAACCCC | -0.327
GGGACAC | 1.25

Sequence | RNAcompete 7-mer binding Z-score
AGUACAA | -0.158
GACUGCG | -0.201
UACAUAA | -0.519
GGGGGGG | 3.4
ACGAAAG | 0.579
CCUACGU | -0.691
UUUGAAA | -0.607
CCUCAGC | -0.808
CUACGCU | -0.672
ACGUCGC | -0.522
ACAUGUC | -0.578
UUAAACU | -0.701
GGCAGCU | 0.0203
GUAUUGA | -0.142
CGCGUAA | -0.246
AACGGGG | 3.45
CUCGCAU | -0.73
CCGUUCU | -0.798
GACGCGC | -0.431
AGACGCA | -0.493
GAAGCCU | -0.711
CAGCAAU | -0.47
CAACGUU | -0.62
CAUGGUU | 0.654
UUUGGUG | 1.2

Sequence | RNAcompete 7-mer binding Z-score
CUGUGUG | -0.149
GCGAGGA | 1.93
CGCGUUA | -0.532
CGACAGC | -0.418
CUACCCU | -0.681
CAGUCGG | 0.345
UCGCCGU | -0.73
AGAAUUC | -0.574
AAAAUAG | -0.0285
UGAAUAU | -0.327
CUAGUUG | -0.266
GGUGAAG | 3.04
GAUUUUU | -0.636
CUAGCGU | -0.662
CCACAGC | -0.591
CCUCUCC | -0.555
CUGUGGG | 1.64
UAGUUUG | -0.0804
GCUGCAG | 0.358
GCUUACG | -0.483
UUAAUUC | -0.759
CGACGUG | 0.462
GAGAGGU | 1.86
CGCGCUU | -0.704
GUCUGCA | -0.571

Sequence | RNAcompete 7-mer binding Z-score
GGAUCCC | 0.0333
UCCAAGU | -0.652
CAACGAG | -0.0382
GCCUGAG | -0.269
AUUAUUC | -0.759
UGCGCGC | 0.3
AGGCCAU | -0.503
AAACCCU | -0.876
AAACACU | -0.552
AUGUACU | -0.311
CCGCGAU | -0.698
GGCGUAG | 1.29
CCUCGUA | -0.782
ACAAGGU | 1.65
CUAUAGG | 0.358
CGAACUA | -0.711
UGGACAC | 1.06
AGUUUAA | -0.435
UAUCAGA | -0.428
AGGCUCG | -0.233
AAGGUAU | 2.13
AAUAAGC | -0.37
GGCCGGU | 0.202
GAGUGUA | 0.972
AGGGGCU | 1.35

Sequence | RNAcompete 7-mer binding Z-score
GCGUCGU | 0.069
AAGUAAA | 0.043
UACAAGU | -0.451
AGUGCCG | -0.11
UGAUGUA | 0.218
GGUGUCC | 0.794
ACUUAAC | -0.691
CCUGUCG | -0.629
UAGUCGC | -0.405
AUCUCCU | -0.772
CUAGCAG | -0.233
CUGGACA | 0.0235
UAAGGCA | 0.888
CCUGCGA | -0.532
ACUACUG | -0.428
CAAGGGC | 1.02
GGAGGGU | 3.97
GUGGGAC | 2.35
UACGGCC | -0.626
ACUAAUU | -0.688
CACGCGC | -0.366
UGGCCGC | -0.126
CACGAUA | -0.347
AAGCGUA | 0.14
GACGACG | 0.163

Sequence | RNAcompete 7-mer binding Z-score
CGCAUAU | -0.539
CCGUUAA | -0.756
GCUCACA | -0.386
CCAUCAC | -0.727
ACCCUUG | -0.779
GACCAUG | -0.698
ACGGCCC | -0.578
UAACUAU | -0.617
CGUCUAU | -0.675
CCCCCUA | -0.409
UCUUACC | -0.841
AUUCGAC | -0.707
ACAUGCA | -0.295
CUGUACA | -0.539
UAGACAU | -0.194
GGCACGU | 0.566
UAGAUGC | -0.318
GACUCAG | -0.402
UUCUAUG | -0.821
GACUACU | -0.594
GCAGGCG | 1.12
GUUACUU | -0.487
AGCUCAC | -0.772
GGCGAAG | 1.96
CAUCAGA | -0.513

Sequence | RNAcompete 7-mer binding Z-score
AAUCGGU | 0.439
UCGGGUU | 1.12
GGGGAGG | 3.64
UUGUAAC | -0.649
GUCUAUC | -0.454
UAGGAUC | 0.524
AAGUAUG | 0.667
UUACGCU | -0.5
AGAUUUC | -0.717
GGGGACC | 1.85
AUCUUUC | -0.893
AGUAACC | -0.438
UCAGUCA | -0.49
GUGGCUC | 0.345
UCAAAGG | 0.391
AUUGACC | -0.617
CCAUAAU | -0.928
UCAGCAA | -0.363
AGUGGCC | 0.0268
ACUACAU | -0.711
UUGACGC | -0.422
GCUGGGA | 2.03
GUUAAGG | 2.1
GUGGUGA | 2.14
AUCGCCA | -0.717

Sequence | RNAcompete 7-mer binding Z-score
CACACGC | -0.318
GAUGGGG | 4.43
AUUGCAU | -0.451
UUCACAU | -0.698
AUUCGUC | -0.737
GGGACCG | 1.27
ACUGGGU | 2.06
AAAGGCC | -0.035
AUAAUAU | -0.451
CAGGCAA | 0.212
UCAACGA | -0.617
UCAGCGC | -0.425
GCUCUAG | -0.464
GGUUACU | 0.277
ACCGCUA | -0.724
UCUGUGC | -0.714
GGCGUUG | 0.657
AGUGAUC | -0.116
AUGAAUC | -0.21
GGUUAAU | 1.31
CAGUGGC | 0.417
UUAGCAA | -0.402
GAUGUAA | 0.413
AGGCACU | -0.123
CUCUGCC | -0.759

Sequence | RNAcompete 7-mer binding Z-score
CAAGAAA | -0.266
UGGCGGG | 3.47
UCUCCAU | -0.834
ACCCCUG | -0.561
GCAAGCA | -0.35
CCCAAAU | -0.798
UGGCUAA | 0.244
GUUAGGG | 3.73
UCCCUAC | -0.837
UACCGAU | -0.581
UCGACAC | -0.565
UACAAAC | -0.568
UCAAAAA | -0.561
UGGAUCA | 0.641
GGGCCCC | 0.443
CUUAGCU | -0.652
CCUGGAU | -0.487
GGCUUUC | -0.513
UACGUGG | 1
GUUACUC | -0.548
UCUUAUG | -0.714
AUGUCCG | -0.626
CAGAGUU | -0.168
UGCGUAU | -0.363
AAUAUAG | 0.0235

Sequence | RNAcompete 7-mer binding Z-score
GCCCAGG | 0.179
UAUUACA | -0.516
GAAAUCG | 0.03
UGAUCCC | -0.503
GAGCCAA | -0.363
CACACGA | -0.539
AACAUGG | 1.13
UAUGAUC | -0.516
CGGGCCA | -0.194
GGUGGAU | 2.75
CUGGAUC | -0.311
ACCAUCU | -0.841
GACAAAC | -0.558
CACAUCC | -0.681
CAUGACA | -0.412
AAACAAA | -0.204
UUAUCGA | -0.223
